Residue numbers refer to the chain shown, from its start. Results are given in words; binding and its absence hold for the method and conditions named. Some entries that bind do so weakly or less than the wild type. Tags and fused reporters may be left off the sequences shown.

The chains behind the UniProt entries cited, without tags or fusion partners. Residues count along the entry.
UniProt Q9LVJ7, residues 170-237: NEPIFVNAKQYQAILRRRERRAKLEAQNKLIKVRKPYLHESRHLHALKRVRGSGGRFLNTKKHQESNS
UniProt Q9M9X4: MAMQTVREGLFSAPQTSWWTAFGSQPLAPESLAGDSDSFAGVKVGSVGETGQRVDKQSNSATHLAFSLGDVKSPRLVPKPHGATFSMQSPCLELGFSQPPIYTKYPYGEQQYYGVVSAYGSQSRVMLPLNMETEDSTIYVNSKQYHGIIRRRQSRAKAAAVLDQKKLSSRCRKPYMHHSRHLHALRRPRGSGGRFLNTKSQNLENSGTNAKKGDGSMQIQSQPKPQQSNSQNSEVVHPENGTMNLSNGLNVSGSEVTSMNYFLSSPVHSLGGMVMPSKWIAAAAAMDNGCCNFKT
UniProt Q39057: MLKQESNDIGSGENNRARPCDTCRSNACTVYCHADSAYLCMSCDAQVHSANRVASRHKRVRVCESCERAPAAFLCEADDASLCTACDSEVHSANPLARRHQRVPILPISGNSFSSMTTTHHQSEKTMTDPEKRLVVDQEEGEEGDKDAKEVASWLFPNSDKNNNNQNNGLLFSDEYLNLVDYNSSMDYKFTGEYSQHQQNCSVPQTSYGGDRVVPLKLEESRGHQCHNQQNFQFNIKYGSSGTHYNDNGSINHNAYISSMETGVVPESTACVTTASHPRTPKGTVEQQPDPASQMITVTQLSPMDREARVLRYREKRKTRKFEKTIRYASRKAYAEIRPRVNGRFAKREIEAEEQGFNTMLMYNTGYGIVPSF

These results are taken from publication PMC5157953.

Assay [1] concerns the target T1, 6His-NF-YB2/NF-YC3 soluble HFD dimer (Arabidopsis thaliana) (UniProt Q9FGJ3+Q9ZVL3).
T1 sequence 1: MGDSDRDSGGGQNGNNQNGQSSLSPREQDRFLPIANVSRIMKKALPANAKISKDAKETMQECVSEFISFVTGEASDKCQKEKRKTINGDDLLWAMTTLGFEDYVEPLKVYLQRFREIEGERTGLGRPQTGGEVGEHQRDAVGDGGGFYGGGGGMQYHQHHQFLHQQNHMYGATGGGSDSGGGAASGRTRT
T1 sequence 2: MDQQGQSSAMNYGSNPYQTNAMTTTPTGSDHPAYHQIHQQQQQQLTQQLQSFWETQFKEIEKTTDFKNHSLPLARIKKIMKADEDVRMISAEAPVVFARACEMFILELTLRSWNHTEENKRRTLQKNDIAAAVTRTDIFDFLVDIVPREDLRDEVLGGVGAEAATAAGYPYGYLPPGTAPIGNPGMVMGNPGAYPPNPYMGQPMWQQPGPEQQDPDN
Put plainly: native gel or EMSA; trimer read as NF-Y/DNA complex on Cy5-labelled FT CCAAT probe (20 nM); NF-YB2/NF-YC3 dimers 60 nM, NF-YA at 3, 4.5 or 6 fold molar ratio; 12 mM Tris-HCl pH 8.0, 50 mM KCl, 62.5 mM NaCl, 5 mM MgCl2; 30 min at 30C; 6% polyacrylamide, 0.25X TBE; both purified.

Assay [2] concerns the target T2, NF-YB2/NF-YC9 histone-fold domain dimer in yeast three-hybrid (NF-YB2 DBD fusion with NF-YC9 from a bridge vector) (Arabidopsis thaliana) (UniProt Q9FGJ3+Q8L4B2).
T2 sequence 1: T1 sequence 1
T2 sequence 2: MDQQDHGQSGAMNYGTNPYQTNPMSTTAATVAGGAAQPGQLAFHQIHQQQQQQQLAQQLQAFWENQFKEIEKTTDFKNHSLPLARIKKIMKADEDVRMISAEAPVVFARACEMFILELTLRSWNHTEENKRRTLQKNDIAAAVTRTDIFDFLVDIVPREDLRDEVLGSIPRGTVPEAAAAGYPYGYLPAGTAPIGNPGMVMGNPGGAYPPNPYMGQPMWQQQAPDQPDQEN
Put plainly: two-hybrid; yeast three-hybrid in PJ69-4alpha; NF-YA2 as activation domain fusion, NF-YC9 from the bridge vector pTFT1; medium lacking histidine with 5 mM 3-AT.

Assay [3] addresses T3, NF-YB2^E65R/NF-YC9 dimer in yeast three-hybrid (NF-YB2^E65R fusion with NF-YC9 from a bridge vector) (Arabidopsis thaliana) (UniProt Q9FGJ3+Q8L4B2).
T3 sequence 1: T1 sequence 1 with E65R
T3 sequence 2: T2 sequence 2
The assay is described as above.

Assay [4] addresses T2, NF-YB2/NF-YC9 histone-fold domain dimer in yeast three-hybrid (NF-YB2 DBD fusion with NF-YC9 from a bridge vector) (Arabidopsis thaliana). Put plainly: two-hybrid; yeast three-hybrid as in a2 with CO in place of NF-YA2; no figure shown; read by yeast growth.
The target of assay [5] is T3, NF-YB2^E65R/NF-YC9 dimer in yeast three-hybrid (NF-YB2^E65R fusion with NF-YC9 from a bridge vector) (Arabidopsis thaliana). The assay is described as above.
For assay [6], the target named is T4, NF-YB2^E65R, yeast two-hybrid fusion (Arabidopsis thaliana) (UniProt Q9FGJ3).
T4 sequence: T1 sequence 1 with E65R
The assay is described as follows: two-hybrid; yeast two-hybrid in MaV203, ProQuest system; X-Gal assay and medium lacking histidine with 5 mM 3-AT.

In assay [7] the target is T5, NUCLEAR FACTOR Y subunit B2 (NF-YB2), yeast two-hybrid fusion (Arabidopsis thaliana) (UniProt Q9FGJ3).
T5 sequence: T1 sequence 1
Described as above.

On to “NF-YA6 (aa 170-237) with C-terminal 6His tag (from UniProt Q9LVJ7 170-237) (domain or fragment)”, for which the binding entry in assay [1] was “binds”.
Take “NUCLEAR FACTOR Y subunit A2 (NF-YA2), activation domain fusion for yeast three-hybrid (from UniProt Q9M9X4 1-295)”: the binding entry was “binds” in assay [2] and “no binding” in assay [3].
Turning to “CONSTANS (CO), yeast three-hybrid fusion (from UniProt Q39057 1-373)”, the binding entry in assay [4] and in assay [5] was “no binding” in each case.

B1: NUCLEAR FACTOR Y subunit C9 (NF-YC9), yeast two-hybrid fusion (protein, UniProt Q8L4B2 1-231)
chain: T2 sequence 2
With B1, the binding result in assay [6] and in assay [7] was “binds” in each case.

B2: NUCLEAR FACTOR Y subunit C4 (NF-YC4), yeast two-hybrid fusion (protein, UniProt Q9FMV5 1-250)
chain: MDNNNNNNNQQPPPTSVYPPGSAVTTVIPPPPSGSASIVTGGGATYHHLLQQQQQQLQMFWTYQRQEIEQVNDFKNHQLPLARIKKIMKADEDVRMISAEAPILFAKACELFILELTIRSWLHAEENKRRTLQKNDIAAAITRTDIFDFLVDIVPREEIKEEEDAASALGGGGMVAPAASGVPYYYPPMGQPAVPGGMMIGRPAMDPSGVYAQPPSQAWQSVWQNSAGGGDDVSYGSGGSSGHGNLDSQG
Turning to B2, the binding entry in assay [6] and in assay [7] was “binds” in each case.

B3: NUCLEAR FACTOR Y subunit C3 (NF-YC3), yeast two-hybrid fusion (protein, UniProt Q9ZVL3 1-217)
chain: T1 sequence 2
For the molecule B3, the binding result in assay [6] and in assay [7] was “binds” each time.
